# Laboratory results taken from PMC4336329 (PLoS ONE, 2015).
# Screen size: about 310,000 compounds; about 2,200 (0.71%) showed an effect of 50% or more. Effects have a minus sign here. The list shows a part of the results.
# Molecular target: human ether-à-go-go-related gene (hERG) potassium channel (human, UniProt Q12809)
# Experiment: primary screen, population patch clamp on CHO cells stably expressing hERG
# Chain of human ether-à-go-go-related gene (hERG) potassium channel (Q12809 whole entry, looked up): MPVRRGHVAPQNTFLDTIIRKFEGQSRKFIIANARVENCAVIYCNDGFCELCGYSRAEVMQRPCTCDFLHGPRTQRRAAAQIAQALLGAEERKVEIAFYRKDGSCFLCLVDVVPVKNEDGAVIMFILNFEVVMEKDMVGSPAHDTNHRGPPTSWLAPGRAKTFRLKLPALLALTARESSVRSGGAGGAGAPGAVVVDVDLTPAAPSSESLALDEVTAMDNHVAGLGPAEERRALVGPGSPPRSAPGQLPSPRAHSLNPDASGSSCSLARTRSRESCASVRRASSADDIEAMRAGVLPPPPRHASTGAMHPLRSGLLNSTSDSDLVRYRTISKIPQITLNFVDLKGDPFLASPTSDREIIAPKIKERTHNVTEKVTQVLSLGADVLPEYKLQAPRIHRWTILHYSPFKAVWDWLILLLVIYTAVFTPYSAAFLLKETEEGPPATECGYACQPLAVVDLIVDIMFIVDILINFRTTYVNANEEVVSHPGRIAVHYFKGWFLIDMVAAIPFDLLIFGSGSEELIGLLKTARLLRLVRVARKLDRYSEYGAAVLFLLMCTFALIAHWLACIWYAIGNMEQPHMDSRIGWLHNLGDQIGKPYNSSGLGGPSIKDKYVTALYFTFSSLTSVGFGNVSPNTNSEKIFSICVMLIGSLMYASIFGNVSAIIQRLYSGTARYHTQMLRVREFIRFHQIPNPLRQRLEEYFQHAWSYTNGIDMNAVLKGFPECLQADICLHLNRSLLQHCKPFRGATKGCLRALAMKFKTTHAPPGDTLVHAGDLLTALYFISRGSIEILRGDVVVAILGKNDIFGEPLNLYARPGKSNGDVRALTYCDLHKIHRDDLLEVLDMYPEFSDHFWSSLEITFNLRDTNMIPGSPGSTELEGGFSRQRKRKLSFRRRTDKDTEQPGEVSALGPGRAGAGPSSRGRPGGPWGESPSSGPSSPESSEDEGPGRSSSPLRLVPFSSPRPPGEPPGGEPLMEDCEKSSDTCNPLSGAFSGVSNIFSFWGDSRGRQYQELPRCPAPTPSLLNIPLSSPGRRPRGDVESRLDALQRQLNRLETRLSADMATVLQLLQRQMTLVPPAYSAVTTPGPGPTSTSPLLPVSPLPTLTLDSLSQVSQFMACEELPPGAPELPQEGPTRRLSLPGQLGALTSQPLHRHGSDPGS
row,SMILES,"hERG current change (%, negative = inhibition) at 1uM [%]"
1,CCn1c(SCc2nc3ccccc3c(=O)[nH]2)nnc1C(C)NC(=O)c1ccccc1F (centres unmarked),14.2
2,O=C(NNc1ccccn1)c1ccc(Cl)nc1,7.95
3,O=[N+]([O-])c1ccc(O)c(/C=N/NC2=NS(=O)(=O)c3ccccc32)c1,13.5
4,CCOC(=O)C(C)(C)NS(=O)(=O)c1ccc(Cl)c([N+](=O)[O-])c1,4.07
5,CNC(=O)CSc1nc(N)c2c3c(sc2n1)CCC3,-10.6
6,CCN(CC)c1ccc(NC(=O)c2cc(Cl)ccc2OC)cc1,-6.18
7,CCOC(=O)[C@H]1[C@H]2COc3cc(OC)ccc3[C@@H]2N2C(=O)CN(Cc3ccco3)C(=O)[C@@]12C,15.1
8,O=C(NCc1ccco1)c1cccnc1-c1nc2ccccc2s1,-5.39
9,CCC(C)S(=O)(=O)c1snnc1C (centres unmarked),13.6
10,Cc1ccn2cc(CCNC(=O)c3ccc(Br)o3)nc2c1,-14.8
11,CC1CCCCC1NC(=O)CCn1ccc2cc(S(=O)(=O)N3CCCC3)ccc21 (centres unmarked),7.83
12,COC(=O)C1=C(C)NC(C)=C(C(=O)OC)C1c1ccco1,12.7
13,CN(C)S(=O)(=O)c1ccc(C(=O)OCC(=O)NCc2ccccc2)cc1,10.4
14,CN(C)C(=O)c1ccc(NC(=O)c2ccccc2-c2ccccc2)cc1,16.2
15,CCCCN(C(=O)/C=C/c1ccccc1)C1CCS(=O)(=O)C1 (centres unmarked),0.645
16,COc1ccc(Cl)cc1NS(=O)(=O)c1cn(C)nc1C,10.5
17,CCOP(=O)(OCC)C(NC(=O)Nc1ccc(C)cc1)C(N)=O (centres unmarked),9.23
18,CC(C)C(NC(=O)c1cccnc1)C(=O)O (centres unmarked),9.2
19,CCc1ccc(NC(=O)C2CCCN(S(=O)(=O)c3cccnc3)C2)cc1 (centres unmarked),10.8
20,N#Cc1cccc(NCC(=O)Nc2cccc(S(=O)(=O)N3CCCCC3)c2)c1,-4.8
21,CC(C)=CCC/C(C)=C/C(N)=O,10.3
22,Cc1cc(C)c(C(=O)CSc2nc(C)cc(=O)[nH]2)c(C)c1,15.6
23,COc1c(O[C@@H]2O[C@H](CO)[C@@H](O)[C@H](O)[C@H]2O)cc2c(c1OC)-c1ccc(SC)c(=O)cc1C(NC(C)=O)CC2 (some centres unmarked),-1.1

row,SMILES,"hERG current change (%, negative = inhibition) at 1uM [%]"
1,Cc1ccc(S(=O)(=O)N2CCN(C(=O)COC(=O)C3CCC3)CC2)cc1,6.96
2,O=c1[nH]c2c(n(C3CCCCC3)c1=O)CCC2,-5.16
3,CC(C)Oc1ccc(C2NC(=O)NC2=O)cc1 (centres unmarked),25.1
4,CC(Oc1ccc(Br)cc1)C(=O)Nc1ccncc1 (centres unmarked),0.656
5,Cc1ccc(-c2nnc(SCC(=O)N/N=C/c3c(C)nn(-c4ccccc4)c3C)n2-c2ccccc2)cc1,8.19
6,Cc1ccc(-c2cn3c(n2)CCCC3)cc1.Cl,0.153
7,Cc1cc(NC(=O)CSCC(=O)OCC(=O)c2cccc(Br)c2)no1,0.666
8,COc1cc(/C=C2\SC(=S)N(NS(=O)(=O)c3ccccc3)C2=O)ccc1O,5.22
9,O=C(CCc1c[nH]c2ccccc12)N=Nc1c(O)[nH]c2ccccc12,13.5
10,O=C(c1cc2cc(Br)ccc2[nH]1)N1CCc2ccccc21,13
11,O=C(NCc1ccco1)c1ccc(Cl)cc1[N+](=O)[O-],13.7
12,O=C(C[n+]1ccccc1)Nc1c(Cl)cc(Cl)cc1Cl.[Cl-],14
13,CC(=O)c1ccc2noc(-c3cccc(C)c3)c2c1,-3.65
14,O=C(CCNS(=O)(=O)c1cccc2nsnc12)NCCc1ccccc1,4.74
15,CC/C(=N\NC(=O)c1ccc(N2CCCC2=O)cc1)c1ccccc1,10.8
16,Cc1ccc(C(=O)NCCc2csc(-c3cccnc3)n2)cc1,15.6
17,CCOC(=O)CSc1nnc(-c2ccc(S(=O)(=O)N3CCOCC3)cc2)n1-c1ccccc1,14.6
18,COc1ccccc1C1CCN(Cc2ccc(Cl)cc2Cl)CC1,12
19,Cc1cccc2nc(CNC(=O)CC3C(=O)NCCN3Cc3cccc(F)c3)cn12 (centres unmarked),5.15
20,CN(CCO)c1nc(N)c(C#N)c(CC#N)c1C#N,11.3
21,O=C(Nc1cccc(Cl)c1)N1CCCC1,12.8
22,CCCCN(C(=O)CNC(=O)c1cccs1)C(C(=O)NC1CCCCC1)c1cccnc1 (centres unmarked),9.74
23,Cc1ccc(COCC(CC(C)C)N2CCN(C(=O)c3cccc(C(F)(F)F)c3)CCC2=O)cc1 (centres unmarked),6.44

row,SMILES,"hERG current change (%, negative = inhibition) at 1uM [%]"
1,S=C(NCc1ccc2[nH]c3c(c2c1)CCCC3)Nc1ccccc1Cl,14.3
2,CC(C)(C)C1=Nn2c(nnc2-c2ccccc2F)SC1,6.92
3,COc1cc(OC)cc(-c2cc3nc(C)cc(N4CCN(C(=O)c5ccco5)CC4)n3n2)c1,10
4,O=C(Nc1ccc([N+](=O)[O-])cc1)Nc1ccon1,7.99
5,COCCN1Cc2cccc(C(=O)Nc3cc(OC)ccc3OC)c2C1=O,0.697
6,CCOC(=O)C1C(=O)C=C(C)C(C(=O)OCC)C1c1ccc(OC)cc1 (centres unmarked),1.95
7,CNC(=O)CN(c1ccc(Oc2ccccc2)cc1)S(=O)(=O)c1ccc(C)cc1,12.6
8,CCOc1cccc2cc(C(=O)N3CCOCC3)c(=O)oc12,18.9
9,C/C(=N\NC(=O)c1c(C)nc2ccccn12)c1ccc(C(C)(C)C)cc1,11.3
10,N#CCc1ccc(NS(=O)(=O)c2ccc(N3CCCC3=O)cc2)cc1,-0.504
11,Cc1cc(C)c(N(C(=O)Cn2nnc3ccccc32)C(C(=O)NC(C)(C)C)c2ccsc2)c(C)c1 (centres unmarked),-11.3
12,COc1ccc(N2CCCn3c2nc2c3c(=O)n(CCc3ccccc3)c(=O)n2C)cc1,4.58
13,Cc1ccc(C2CC2c2n[nH]c(=S)n2-c2ccc(C)cc2)cc1 (centres unmarked),5.98
14,CC(C)CCNC(=O)c1c[nH]c2ccc(S(=O)(=O)N3CCC4(CC3)OCCO4)cc2c1=O,7.76
15,COc1ccc(-c2nc(NC(=O)CSc3nnc(C)s3)ns2)cc1,1.46
16,CCCN(CC1CC1)C(=S)NC(=O)C1CC1,20.1
17,COc1ccc(C2C(C(=O)NCCN(C)C)c3cc(OC)c(OC)cc3C(=O)N2C)cc1OC (centres unmarked),11.7
18,O=C1CN=C(c2ccc[nH]2)c2cc(Cl)ccc2N1,7.4
19,Cc1cccc(-c2nc(CN3CCCC(C(=O)NC4CCCCCC4)C3)c(C)o2)c1 (centres unmarked),-15.4
20,O=C(CSc1ccc(-c2cccs2)nn1)c1cccs1,-6.94
21,Cn1ncc(Cl)c1C(=O)N1CCC2(CC1)OCCO2,-1.69
22,CC(=O)NC[C@H]1CN(c2ccc(N3CCOCC3)c(F)c2)C(=O)O1,1.39
23,Cc1c(N2C(=O)c3cccc4cccc(c34)C2=O)cnn1C,4.45

row,SMILES,"hERG current change (%, negative = inhibition) at 1uM [%]"
1,CCOC(=O)C1CCN(C(=O)c2cc3cc(Cl)ccc3[nH]2)CC1,-1.34
2,CC1CCCCN1S(=O)(=O)c1ccc(S(=O)(=O)N2CCCC2)cc1 (centres unmarked),13.5
3,Cc1nc2ccccc2n1CC(=O)N/N=C\c1ccccn1,8.64
4,COc1ccc(-c2csc(N(CCCN(C)C)C(=O)c3ccccc3F)n2)cc1.Cl,6.7
5,Cc1ccc(OCCNC(=O)c2cccc(Oc3ccc(C(F)(F)F)cc3[N+](=O)[O-])c2)cc1,12.3
6,O=C(Nc1ccon1)c1ccc(OC2CCCC2)cc1,11.4
7,Cc1c(NC(=S)NC(=O)c2ccccc2Cl)c(=O)n(-c2ccccc2)n1C,20.5
8,Cc1ccc(C2SCC(=O)N2c2ccccc2)cc1 (centres unmarked),10.8
9,COc1ccc(C)cc1NC(=O)CSc1nnc(-c2ccccn2)n1Cc1ccco1,-3.86
10,Oc1ccc2oc3c(c2c1C=NCc1ccncc1)CCCC3,9.54
11,Cc1ccc(OCC(=O)Nc2nnc(S(=O)(=O)N3CCC(C)CC3)s2)cc1,17.4
12,O=C(O)c1ccc(S(=O)(=O)c2ccc3c(c2)C(=O)N(NC(=O)c2ccccc2)C3=O)cc1,16.9
13,O=C(C(Cc1ccccc1)n1cccc1)N1CCN(c2ncccn2)CC1 (centres unmarked),6.86
14,Cc1cc(Cl)c(OCCn2ccnc2)c(Br)c1.O=C(O)C(=O)O,8.07
15,O=c1c2cc(Cl)ccc2nc(-c2ccc(Cl)c(Cl)c2)n1O,13.1
16,COc1cc(C(=O)NCc2ccc3[nH]c(C)cc3c2)cc(OC)c1OC,8.57
17,COCCn1c(=S)[nH]c2cc(OC)c(OC)cc2c1=O,3.58
18,O=C(COC(=O)Cc1ccc(Cl)cc1)NCCc1ccccc1,6.75
19,COc1cccc(S(=O)(=O)NCC(=O)Nc2ccc(C(C)(C)C)cc2)c1,9.36
20,Cn1c(Cc2ccccc2)nnc1SCC(=O)c1cccs1,4.24
